# Results as given in PMC6212790.
# Some of the results follow. At the low end of the ranking, values are background and their order means little.
# Target: T1, GST-Rok-C97-191 (UniProt O34857)
# T1 sequence: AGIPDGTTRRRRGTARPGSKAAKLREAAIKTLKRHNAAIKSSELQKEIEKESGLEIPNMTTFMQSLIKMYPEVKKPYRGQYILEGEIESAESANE
# Assay: protein binding microarray;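 note: rank score from −0.5 (least bound) to 0.5 (best bound)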
# Details: Rok is a gene silencer of Bacillus subtilis; high values mean tight binding; most listed sequences are background and not binding sites; double strand, one strand shown
row,Sequence,binding signal
1,GATATAGC,0.0553 E-score
2,AGTCTTCC,-0.0303 E-score
3,CTAGAGGC,-0.0875 E-score
4,ATACGGGG,-0.0335 E-score
5,CCCAGATA,0.147 E-score
6,CGTACACC,-0.0472 E-score
7,ACGGCCCC,-0.287 E-score
8,AATATGGC,0.116 E-score
9,GCAGTGCC,-0.0131 E-score
10,GCGATCAA,-0.158 E-score
11,CATGGATC,0.052 E-score
12,ATAACTAA,0.249 E-score
13,GGCATGCC,-0.492 E-score
14,GGCCAGAA,-0.00107 E-score
15,AGGACCAG,-0.242 E-score
16,GCACGTTA,0.186 E-score
17,ATAATAAC,0.287 E-score
18,GAGACCCA,-0.0105 E-score
19,AGGGGAGG,-0.343 E-score
20,ACAGGGAA,0.0404 E-score
21,GACCGGCA,-0.072 E-score
22,ACGTAAGG,-0.0369 E-score

row,Sequence,binding signal
1,GTTTATAA,0.183 E-score
2,GCTAGTGA,0.0769 E-score
3,GTTCCACA,0.0837 E-score
4,AGCCGCGA,-0.327 E-score
5,ACAAAACC,-0.0361 E-score
6,CCCAAGAG,-0.161 E-score
7,ATGAAGGA,-0.163 E-score
8,AGAGGCAG,-0.241 E-score
9,ACACCGTC,-0.0123 E-score
10,CCTCATTA,0.0758 E-score
11,TAAGTTAA,0.214 E-score
12,TAGCCTCA,-0.0894 E-score
13,ACTACTCT,0.19 E-score
14,AAGACTAT,-0.0345 E-score
15,ACCTCACT,-0.0237 E-score
16,AAATCGCG,0.0688 E-score
17,GCCGGGAC,-0.251 E-score
18,CCGCACCG,-0.0859 E-score
19,ACTGGTGG,-0.116 E-score
20,CTGTCGGA,-0.0941 E-score
21,CCACTCGC,-0.161 E-score
22,ATCGCGCC,-0.129 E-score

row,Sequence,binding signal
1,CTATGCAG,0.12 E-score
2,AGTATTTA,0.301 E-score
3,ACAACTAC,0.348 E-score
4,ACGGGGTG,-0.196 E-score
5,CCGGCAAA,-0.103 E-score
6,GCTCTAAC,-0.00406 E-score
7,TACTCCGA,0.111 E-score
8,CGTTCTTC,-0.145 E-score
9,CCCTAAGA,-0.0864 E-score
10,GAATATTC,0.339 E-score
11,GGGTAGAC,-0.0486 E-score
12,AGAATCTG,0.0512 E-score
13,AAAAGAAG,-0.0279 E-score
14,ACACCAAG,-0.0851 E-score
15,ATTCCTGA,0.0117 E-score
16,GACGGCTC,-0.197 E-score
17,CGAGCTCG,0.00887 E-score
18,CTACATCA,0.245 E-score
19,ACCAGGAA,-0.11 E-score
20,CTCCCGTC,-0.318 E-score
21,CTCCTGAC,-0.229 E-score
22,ACGCGCGG,-0.282 E-score

row,Sequence,binding signal
1,GTCAGAAA,0.0136 E-score
2,AGTGACAG,-0.231 E-score
3,AGCTACAT,0.368 E-score
4,CCGATGCA,-0.0177 E-score
5,GACTTGCA,-0.098 E-score
6,CACTTTCG,-0.028 E-score
7,GCAGACAA,-0.0758 E-score
8,AACATTGT,0.123 E-score
9,AACCCTAT,0.0077 E-score
10,ACCGATGC,-0.073 E-score
11,AGTGCAAT,0.00284 E-score
12,TCTCGGCA,0.0742 E-score
13,CTCAAAGC,-0.0826 E-score
14,TCTCACAA,0.0734 E-score
15,GGCTGACA,-0.0757 E-score
16,GGTCCCCA,-0.315 E-score
17,ATAGAAAC,0.326 E-score
18,AATTCAGA,0.0892 E-score
19,GACGAAAA,-0.0858 E-score
20,CACCTCCG,-0.126 E-score
